Measurements as given in paper PMC4336329 (PLoS ONE, 2015).
The campaign covered roughly 310,000 compounds. About 14,000 (4.5%) showed an effect of 50% or more. The effect is printed as a negative number. The list shows a part of the results.

target: human ether-à-go-go-related gene (hERG) potassium channel (human, UniProt Q12809); experiment: primary screen, population patch clamp on CHO cells stably expressing hERG
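Further: peak tail current of the secondary pulse compared with the same well before compound.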

Sequence of human ether-à-go-go-related gene (hERG) potassium channel (Q12809 whole entry, looked up): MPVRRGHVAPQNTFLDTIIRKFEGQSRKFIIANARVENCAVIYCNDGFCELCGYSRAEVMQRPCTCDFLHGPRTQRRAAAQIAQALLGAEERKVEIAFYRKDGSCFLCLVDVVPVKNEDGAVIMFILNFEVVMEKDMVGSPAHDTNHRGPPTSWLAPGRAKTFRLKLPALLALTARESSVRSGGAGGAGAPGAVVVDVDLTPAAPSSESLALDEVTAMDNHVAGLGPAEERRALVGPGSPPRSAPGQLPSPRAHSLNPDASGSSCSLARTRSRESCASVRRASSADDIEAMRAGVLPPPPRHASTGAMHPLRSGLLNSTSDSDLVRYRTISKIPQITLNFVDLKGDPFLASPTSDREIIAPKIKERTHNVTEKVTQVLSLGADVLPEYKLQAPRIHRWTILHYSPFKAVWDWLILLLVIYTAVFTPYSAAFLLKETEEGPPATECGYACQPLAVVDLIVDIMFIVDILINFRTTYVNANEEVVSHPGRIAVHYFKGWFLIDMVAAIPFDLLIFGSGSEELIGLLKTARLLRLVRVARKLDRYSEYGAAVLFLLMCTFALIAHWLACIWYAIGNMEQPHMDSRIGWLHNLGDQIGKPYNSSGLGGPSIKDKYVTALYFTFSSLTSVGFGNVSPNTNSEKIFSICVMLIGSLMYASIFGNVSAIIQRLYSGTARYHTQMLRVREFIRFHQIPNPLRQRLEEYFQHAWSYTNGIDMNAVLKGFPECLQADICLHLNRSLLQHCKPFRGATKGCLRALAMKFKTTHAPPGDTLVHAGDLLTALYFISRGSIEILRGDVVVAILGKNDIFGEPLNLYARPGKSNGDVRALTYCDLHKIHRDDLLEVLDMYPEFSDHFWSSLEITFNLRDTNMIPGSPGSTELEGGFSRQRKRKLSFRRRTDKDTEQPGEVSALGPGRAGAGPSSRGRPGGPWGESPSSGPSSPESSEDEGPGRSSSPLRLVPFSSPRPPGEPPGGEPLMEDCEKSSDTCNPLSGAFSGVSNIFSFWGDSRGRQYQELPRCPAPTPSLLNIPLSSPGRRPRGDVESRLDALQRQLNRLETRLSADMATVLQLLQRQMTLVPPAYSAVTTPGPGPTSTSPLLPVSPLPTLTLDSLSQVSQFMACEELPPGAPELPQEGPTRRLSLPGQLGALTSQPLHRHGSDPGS

Compared with `Cc1ccc(C)c(NC2=NC3(CCCCC3)N=C(N)N2)c1`, `Cc1ccc(C)c(S(=O)(=O)Nc2cccc(-n3cnnn3)c2)c1` is lower in “hERG current change (%, negative = inhibition) at 10uM” value: 3.52% for the first, -6.68% for the second.

Compared with `CSc1ccccc1C(=O)NCCSC(C)(C)C`, `CC(C)CCNC(=O)C1CC(c2ccccc2[N+](=O)[O-])=NO1` (centres unmarked) is lower in “hERG current change (%, negative = inhibition) at 10uM” value: 6.86% for the first, -4.33% for the second.

First: CCCN(CCC)CCCNC(=O)CC(C(=O)N1CCc2ccccc21)n1ccnc1 (centres unmarked)
Second: CCCn1nc2cc(C(=O)NCCCCc3ccccc3)ccc2c1OCC
The “hERG current change (%, negative = inhibition) at 10uM” value of the first is higher: -0.225% for the first, -23.9% for the second.

Compared with `c1ccc(C2[C@H]3CN(Cc4cccnc4)[C@H](c4ccccc4)C34CC2(c2cccnc2)C4)cc1` (some centres unmarked), `O=C(CNc1ccccc1-c1ccccc1)NCc1ccccc1` is lower in “hERG current change (%, negative = inhibition) at 10uM” value: -5.03% for the first, -21.7% for the second.

First: Cc1ccc(Sc2ncccc2C(=O)NCC(c2ccc(F)cc2)N2CCOCC2)cc1C (centres unmarked)
Second: Cc1ccccc1NC(=O)CSc1nnc(Cc2cccn2C)n1-c1ccc(F)cc1
The “hERG current change (%, negative = inhibition) at 10uM” value of the first is lower: -29.4% for the first, -0.084% for the second.

Going from `O=C(Cc1noc2ccccc12)NNC(=S)Nc1ccccc1` to `O=C(Nc1ccccc1)c1ccc(OC(=O)c2cc3ccccc3o2)cc1`, the “hERG current change (%, negative = inhibition) at 10uM” value falls from 20.1% to 13.4%.

First: O=C(c1ccco1)N1C(=O)c2cccc3c(S(=O)(=O)N4CCCC4)ccc1c23
Second: Cc1cc(N2CCN(S(=O)(=O)c3ccccc3)CC2)nc2c(C)cccc12
The “hERG current change (%, negative = inhibition) at 10uM” value of the first is lower: 5.4% for the first, 23.1% for the second.

Compared with `CCC(=O)Nc1c(S(=O)(=O)c2ccccc2)c2nc3ccccc3nc2n1Cc1ccccc1`, `COc1cc2oc3ccccc3c2cc1N(CC(=O)N(C)C)S(=O)(=O)c1ccccc1` is lower in “hERG current change (%, negative = inhibition) at 10uM” value: -0.531% for the first, -19.4% for the second.

Compared with `CC(=O)c1c(C)[nH]c(C(=O)N(C)CC(=O)Nc2ccc(Cl)c(C(F)(F)F)c2)c1C`, `CC(=O)c1c(C)[nH]c(C(=O)NCc2ccccc2Cl)c1C` is higher in “hERG current change (%, negative = inhibition) at 10uM” value: -7.97% for the first, 5.4% for the second.

First: COc1ccc(/C=C2\Oc3cc(OCC(N)=O)ccc3C2=O)cc1OC
Second: COC(=O)CN1C(=O)N/C(=C/c2ccc(OC)c(C)c2OC)C1=O
The “hERG current change (%, negative = inhibition) at 10uM” value of the first is lower: -0.36% for the first, 33.6% for the second.

First: CSc1c(-c2ccccc2)nc2ccccc2c1C(=O)O
Second: O=C(Oc1ccccc1)c1cccc2cccnc12
The “hERG current change (%, negative = inhibition) at 10uM” value of the first is higher: 27% for the first, -8.65% for the second.

First: COC(=O)/C(N=Nc1c(C)n(C)n(-c2ccccc2)c1=O)=C(\C)O
Second: Cc1c(-n2cc(C(=O)O)c(=O)c3cc(F)c(N4CCCC4)c(F)c32)c(=O)n(-c2ccccc2)n1C
The “hERG current change (%, negative = inhibition) at 10uM” value of the first is lower: 9.02% for the first, 20.7% for the second.

Compared with `O=C(NNc1c([N+](=O)[O-])cc(C(F)(F)F)cc1[N+](=O)[O-])c1ccco1`, `CC(=O)Nc1ccccc1NC(=O)C(F)(F)F` is lower in “hERG current change (%, negative = inhibition) at 10uM” value: 21.8% for the first, 19.6% for the second.

Going from `COCCCNC(=S)Nc1ccc(N2CCCCC2)cc1` to `Cc1ccc(OCC(=O)Nc2ccc(N3CCOCC3)cc2)c([N+](=O)[O-])n1`, the “hERG current change (%, negative = inhibition) at 10uM” value rises from 3.5% to 13.1%.

Going from `NS(=O)(=O)c1ccc(NC(=S)NC2CCCC2)cc1` to `O=C(CCCNS(=O)(=O)c1ccc(Br)cc1)N1CC[C@@]2(O)CCCC[C@H]2C1`, the “hERG current change (%, negative = inhibition) at 10uM” value falls from 7.37% to -24.7%.

Compared with `O=C(Nc1ccc(Cl)cc1C(F)(F)F)C(Sc1nnc(-c2cccs2)o1)c1ccccc1` (centres unmarked), `Cn1c(CNC(=O)c2ccco2)nnc1SCC(=O)N1c2ccccc2Sc2ccccc21` is lower in “hERG current change (%, negative = inhibition) at 10uM” value: 5.82% for the first, -5.23% for the second.

Going from `CC1CC(=O)N(C)c2cc([N+](=O)[O-])ccc2N1` (centres unmarked) to `Nc1ccc(O)c([N+](=O)[O-])c1`, the “hERG current change (%, negative = inhibition) at 10uM” value rises from 1.18% to 22.8%.

First: Cc1ccc(N(CC(O)CN2CCCC2)S(=O)(=O)c2ccccc2)cc1 (centres unmarked)
Second: COc1cccc(N(CC(=O)NC(C)c2ccccc2)S(C)(=O)=O)c1 (centres unmarked)
The “hERG current change (%, negative = inhibition) at 10uM” value of the first is lower: -68.2% for the first, 22.3% for the second.

Compared with `Cc1ccc(NC(=O)CN(C)CC(=O)N(CC(C)C)c2c(N)n(CC(C)C)c(=O)[nH]c2=O)c(C)c1`, `COCCN(C(=O)COC(=O)Cc1cccc(OC)c1)c1c(N)n(CC(C)C)c(=O)[nH]c1=O` is lower in “hERG current change (%, negative = inhibition) at 10uM” value: 6.94% for the first, 2.09% for the second.

Compared with `Cc1csc2ncc(C(=O)Nc3ccccc3F)c(=O)n12`, `CSc1ccccc1NC(=O)COc1ccc(Cl)cc1` is lower in “hERG current change (%, negative = inhibition) at 10uM” value: -2.87% for the first, -17.5% for the second.

Compared with `Cc1[nH]n(C(N)=S)c(=O)c1N=Nc1ccc(Br)cc1`, `NC(=S)N/N=C/c1coc2ccccc2c1=O` is lower in “hERG current change (%, negative = inhibition) at 10uM” value: 30.3% for the first, 23.3% for the second.

First: COc1cccc(C(C(=O)NC2CCCCC2)N(C(=O)c2ccco2)c2ccc(-n3cnnn3)c(C)c2)c1 (centres unmarked)
Second: COC(=O)c1cccc(C(=O)N2CCCC(C(=O)c3cccc(OC(C)C)c3)C2)c1 (centres unmarked)
The “hERG current change (%, negative = inhibition) at 10uM” value of the first is lower: -32.7% for the first, 8.88% for the second.

First: CCN(CC)CCCNC(=S)N(CCO)Cc1cc2cc3c(cc2[nH]c1=O)OCO3
Second: CCN(CC)S(=O)(=O)c1ccc(C(=O)Oc2ccc3c(c2)OCO3)cc1
The “hERG current change (%, negative = inhibition) at 10uM” value of the first is higher: 8.27% for the first, -2.51% for the second.

Going from `COc1cccc(N2CCN(C(=O)CN3C(=O)NC4(CCCC4)C3=O)CC2)c1` to `O=C(Cn1cnc2c(nnn2-c2cccc(Cl)c2)c1=O)N1CCCC1`, the “hERG current change (%, negative = inhibition) at 10uM” value falls from 7.99% to -8.36%.

Going from `CCCCCCCCOC(=O)CCn1[nH]c(=O)c2ccccc2c1=O` to `CN(CC(=O)Nc1cccc(F)c1)C(=O)CCCn1c(=O)oc2ccccc21`, the “hERG current change (%, negative = inhibition) at 10uM” value falls from -3.56% to -48.4%.

First: O=C(/C=C/c1c(F)cccc1Cl)NCCCN1CCOCC1
Second: O=C(Nc1ccccc1C(=O)NCCCN1CCOCC1)c1cccc([N+](=O)[O-])c1
The “hERG current change (%, negative = inhibition) at 10uM” value of the first is higher: -12.3% for the first, -52.7% for the second.

Compared with `COCc1cc(C)n(CC(=O)OC)c(=O)c1C#N`, `Cc1noc(C)c1COC(=O)c1cccc(N(C)C)c1` is higher in “hERG current change (%, negative = inhibition) at 10uM” value: 11.9% for the first, 17% for the second.

Compared with `Cc1ccccc1CC1(CO)CCCN(C(=O)CCC(F)(F)F)C1` (centres unmarked), `O=C(CSc1nnnn1C1CCCC1)N1CCCc2ccccc21` is lower in “hERG current change (%, negative = inhibition) at 10uM” value: 11.9% for the first, -12.8% for the second.

First: CCc1ccc(Oc2cc(Cl)nc(N)n2)cc1
Second: COc1cnc(N(C)C)nc1Sc1ccc(Cl)cc1
The “hERG current change (%, negative = inhibition) at 10uM” value of the first is lower: 3.44% for the first, 11.2% for the second.

Going from `CCN(CC)S(=O)(=O)c1cccc(C(=O)Nc2nnc(C)s2)c1` to `CN(C)S(=O)(=O)c1ccc(C(=O)Nc2ccccc2[N+](=O)[O-])cc1`, the “hERG current change (%, negative = inhibition) at 10uM” value falls from 3.2% to -0.189%.

Compared with `O=C(COC(=O)c1ccc(NS(=O)(=O)c2cccs2)cc1O)Nc1nc2ccccc2s1`, `COc1ccccc1C(=O)COC(=O)c1ccc(N(C)C)cc1` is higher in “hERG current change (%, negative = inhibition) at 10uM” value: 1.34% for the first, 34.9% for the second.

Going from `Cc1cc(C(=O)N/N=C2\CCCc3ccccc32)c(C)o1` to `Cc1cccc(N2CCN(C(=O)COc3ccc4c(c3)CCC4)CC2C)c1` (centres unmarked), the “hERG current change (%, negative = inhibition) at 10uM” value falls from 3.1% to -1.36%.

Going from `O=C(N/N=C/c1cc2ccccc2[nH]1)c1ccccc1Cl` to `Cc1ccc(NC(=S)NC(NC(=O)c2ccccc2)C(Cl)(Cl)Cl)c(C)c1` (centres unmarked), the “hERG current change (%, negative = inhibition) at 10uM” value rises from -1.92% to 0.203%.

Going from `Cc1cc(C)nc(-n2nc(C)c(C3(O)C(=O)Nc4ccc(F)cc43)c2N)n1` (centres unmarked) to `Cc1cc(-c2ccccc2)nn1-c1nc2c(c(=O)[nH]c(=O)n2C)n1C`, the “hERG current change (%, negative = inhibition) at 10uM” value falls from 3.79% to -2.99%.

Compared with `CC(C)C(NC(=O)c1ccccc1)C(=O)NC1=NCCS1` (centres unmarked), `CC1CCN(CC(=O)NNC(=O)c2cccc(Br)c2)CC1` is lower in “hERG current change (%, negative = inhibition) at 10uM” value: 10.9% for the first, -14.9% for the second.

First: COc1cccc(-c2[nH]nc3c2C(c2ccsc2)C(C#N)=C(N)O3)c1 (centres unmarked)
Second: CCOC(=O)C1=C(C)N=C2c3ccccc3C(=O)C2C1c1ccc(Br)cc1 (centres unmarked)
The “hERG current change (%, negative = inhibition) at 10uM” value of the first is lower: -4.18% for the first, 2.22% for the second.

First: COC(=O)CCCNC(=O)OCc1ccc([N+](=O)[O-])cc1
Second: COc1ccc(CC(=O)OC2CCCN(C)C2)cc1.Cl (centres unmarked)
The “hERG current change (%, negative = inhibition) at 10uM” value of the first is lower: -10.9% for the first, 19.3% for the second.

Going from `COc1ccc(/C=C/C(=O)NC(=S)NNC(=O)c2cnccn2)cc1` to `CCOc1ccc(/C=C/C(=O)Nc2ccc3[nH]c(=O)[nH]c3c2)cc1`, the “hERG current change (%, negative = inhibition) at 10uM” value falls from 14.5% to -6.93%.

First: O=C(CSc1n[nH]c(=O)n1C1CC1)c1ccc2c(c1)OCCO2
Second: CS(=O)(=O)N1CCC(C(=O)Nc2cc(Cl)c(Cl)cc2Cl)CC1
The “hERG current change (%, negative = inhibition) at 10uM” value of the first is lower: 4.77% for the first, 19.7% for the second.

Going from `CC(C)OC(=O)CCC1(C(=O)O)CCC(=O)NC1` (centres unmarked) to `CCCCCC(=O)N1CC2(C)CN(C(=O)CCCCC)CC(C)(C1)C2=O`, the “hERG current change (%, negative = inhibition) at 10uM” value falls from 7.55% to -30.1%.

Going from `Cc1c(Br)cc(C(=O)N2CCN(CCO)CC2)c(C)c1C` to `CCN1CCc2c(C#N)c(N3CCOCC3)nc(N3CCOCC3)c2C1`, the “hERG current change (%, negative = inhibition) at 10uM” value falls from 9.99% to 5.21%.

Going from `CC(C)(C)C(=O)NC(=S)Nc1cc(C(=O)O)ccc1Cl` to `CN(c1cccc(NC(=O)Nc2ccc(Cl)cc2)c1)S(C)(=O)=O`, the “hERG current change (%, negative = inhibition) at 10uM” value falls from 4.5% to -23.9%.

Compared with `CCCCn1c(N)c(N(CC(C)C)C(=O)c2c(CC)noc2C)c(=O)[nH]c1=O`, `Cn1c(=O)c2c(ncn2CC(=O)N/N=C/C=C/c2ccco2)n(C)c1=O` is lower in “hERG current change (%, negative = inhibition) at 10uM” value: 7.09% for the first, 6.11% for the second.

Going from `O=S(=O)(c1ccc2ccccc2c1)N1CCN(S(=O)(=O)N2CCOCC2)CC1` to `CC(NC(=O)c1ccc(Br)s1)c1ccncc1` (centres unmarked), the “hERG current change (%, negative = inhibition) at 10uM” value rises from -0.31% to 7.8%.

With `Cn1c(SCC(N)=O)nnc1-c1cnccn1` the “hERG current change (%, negative = inhibition) at 10uM” value was 24%.
